Measured values from the BET-seq Pho4 binding data (Le et al. 2018).
The list shows a part of the results. Values were computed here from the reads of four pooled replicates and scatter widely.

What follows are sequences tested against T1, Pho4 (S. cerevisiae) (UniProt P07270) (assay: relative binding free energy (BET-seq); higher = weaker binding). Conditions: reference: library average.
T1 sequence: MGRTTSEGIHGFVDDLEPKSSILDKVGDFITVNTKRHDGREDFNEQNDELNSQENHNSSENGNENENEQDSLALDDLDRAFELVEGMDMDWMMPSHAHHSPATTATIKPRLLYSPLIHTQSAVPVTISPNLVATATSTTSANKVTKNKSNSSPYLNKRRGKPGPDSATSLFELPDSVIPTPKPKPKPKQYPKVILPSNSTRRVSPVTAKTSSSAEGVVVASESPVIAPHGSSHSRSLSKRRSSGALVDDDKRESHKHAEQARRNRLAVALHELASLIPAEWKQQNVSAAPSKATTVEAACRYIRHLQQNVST

Row | Sequence | relative binding free energy [kcal/mol]
1 | AACGTCACGTGCGGGT | -0.01
2 | AGTGCCACGTGTGTTA | -0.18
3 | GTTTTCACGTGTTTAT | 0.46
4 | TATATCACGTGTAGTA | 0.12
5 | TAGAGCACGTGATAGG | -0.14
6 | TATGGCACGTGCATAG | -0.18
7 | GCGGGCACGTGCTTTG | -0.07
8 | ATATTCACGTGTTGGG | 0.24
9 | TATGTCACGTGCGGTC | 0.12
10 | ATGTTCACGTGCATTT | 0.28
11 | TGTAACACGTGCTTGT | -0.11
12 | AAGGTCACGTGGGACG | -0.02
13 | GTCGGCACGTGTGGGC | -0.01
14 | AAGTGCACGTGTAGTA | 0.01
15 | GTTTTCACGTGGAAAG | 0.35
16 | AATCACACGTGTTGGG | 0.07
17 | AAAAGCACGTGAAGTG | 0.32
18 | ATATGCACGTGAGGTG | 0
19 | TGTGACACGTGTCCGG | -0.12
20 | GATGCCACGTGATGTG | 0.1
21 | TGCTGCACGTGCATGT | -0.03
22 | GAATGCACGTGGGGTC | -0.13
23 | TGGGACACGTGGTATT | -0.03

Row | Sequence | relative binding free energy [kcal/mol]
24 | CGGCTCACGTGGGTGA | 0.04
25 | TTTTTCACGTGTTTCC | 0.31
26 | TGGCCCACGTGTGGGG | -0.13
27 | TGGGACACGTGGTGTA | -0.1
28 | AGTAGCACGTGTGCGT | -0.07
29 | GGTATCACGTGATCAT | 0.4
30 | ACTTGCACGTGTAGGA | 0.01
31 | TTTAACACGTGATAAT | 0.34
32 | AAGCGCACGTGGCAGT | 0.01
33 | GGGGCCACGTGAGGAT | 0.33
34 | GGGTTCACGTGTGAAT | 0.41
35 | TGCTTCACGTGAGAAT | 0.48
36 | GTGAGCACGTGTTTGC | -0.02
37 | CTAAGCACGTGTTGAG | 0.04
38 | AAGTACACGTGTTGGA | 0.13
39 | AGTCTCACGTGGTTGA | 0.32
40 | TGTGTCACGTGTAGTT | 0.09
41 | GAGTGCACGTGTTTAT | -0.07
42 | AGGTGCACGTGCAGAA | 0.04
43 | ATGGCCACGTGGCGGG | -0.23
44 | GGTTGCACGTGTCGGG | 0.16
45 | AAGGTCACGTGTAGTT | 0.33
46 | TGTATCACGTGTCTTT | 0.17

Row | Sequence | relative binding free energy [kcal/mol]
47 | TGGTGCACGTGAATTT | 0.1
48 | AGTTGCACGTGGTACG | -0.05
49 | TGTATCACGTGAGTCG | 0.33
50 | TGCATCACGTGGATAG | 0.21
51 | TTTAGCACGTGAAGAG | 0.1
52 | AGGTTCACGTGGAGTG | 0.25
53 | GTAGGCACGTGACTTG | 0.15
54 | GGTGCCACGTGGAGCG | -0.1
55 | CTGTGCACGTGTTTCG | 0.07
56 | CAAATCACGTGTAGGG | 0.13
57 | TGTTGCACGTGCGTGG | -0.05
58 | CTAATCACGTGGGTGT | -0.16
59 | TTGGTCACGTGTCGGG | 0.16
60 | TAAGGCACGTGAGTAT | 0.21
61 | GTGAGCACGTGTGTCG | -0.02
62 | TGATACACGTGGAGTG | -0.03
63 | GGTTGCACGTGCGTAA | 0
64 | GACGTCACGTGTTAGG | 0.22
65 | ATAGACACGTGTTATT | -0.15
66 | GGAGGCACGTGAGGGC | 0.13
67 | GGGGTCACGTGATGCT | 0.21
68 | TCGCGCACGTGGAGTG | -0.16
69 | GAGGGCACGTGGAGAG | 0.06

Row | Sequence | relative binding free energy [kcal/mol]
70 | TTGTTCACGTGCGTTA | 0.17
71 | TCGGACACGTGGTGGC | 0.04
72 | GAGGTCACGTGGAGTT | 0.2
73 | CGGTTCACGTGTGCTT | 0.37
74 | ATGTACACGTGTTAAG | -0.07
75 | GTGGGCACGTGCGCAT | -0.15
76 | GATGTCACGTGCCGGT | 0.08
77 | GTTCTCACGTGCGTGG | 0.25
78 | CTAAACACGTGGTAGG | -0.01
79 | AGGGTCACGTGCTGTT | 0.07
80 | TTGGCCACGTGTGGTT | 0.1
81 | TGACGCACGTGTGGAT | 0.04
82 | TGATTCACGTGAGTAG | 0.38
83 | TAGTGCACGTGCACGT | 0.01
84 | TATTGCACGTGCTCGG | -0.17
85 | GTGGACACGTGGGTAC | -0.04
86 | GTAGGCACGTGGCTTT | -0.04
87 | AGGGTCACGTGACTGT | 0.3
88 | GGGTCCACGTGTCGGT | 0.11
89 | ATACACACGTGAGGGT | 0.15
90 | AGTGTCACGTGTCTGT | -0.12
91 | ACGTACACGTGTTTGT | 0.09
92 | ATGAGCACGTGGTTCA | -0.06

Row | Sequence | relative binding free energy [kcal/mol]
93 | TTCGACACGTGGGTGA | -0.09
94 | TAGCGCACGTGTGGAG | -0.05
95 | ACGGGCACGTGCTGGG | -0.15
96 | ATTGCCACGTGAGGGG | 0.13
97 | CTAGTCACGTGGGTTG | -0.04
98 | TGTGTCACGTGTAATA | 0.15
99 | CTAGTCACGTGTTAGT | 0.19
100 | AGTATCACGTGTTATA | 0.15
101 | TCGGACACGTGTTAGA | 0.25
102 | TTAATCACGTGTAAAA | 0.23
103 | TAAGGCACGTGCCGGG | -0.16
104 | GGGGCCACGTGGGCGG | -0.13
105 | CTGTCCACGTGGGGAG | -0.09
106 | AGTAGCACGTGTCGTG | -0.13
107 | CGCGGCACGTGAGTTG | 0.06
108 | CAAGTCACGTGAAGGT | 0.21
109 | CATGACACGTGTGGTT | 0.05
110 | GAGGTCACGTGGCTGT | 0.05
111 | TCTTGCACGTGGGAAT | -0.13
112 | ATTTTCACGTGCTGAG | 0.2
113 | TGACGCACGTGAGATG | 0.22
114 | GTTTACACGTGATGTG | 0.29
115 | AGGTCCACGTGGGGCG | -0.14
